Over roughly 81,000 sequences, “one-hybrid fitness for binding NBS DNA” has its median near -0.1; the highest 2% begin near 0.36. The list shows a part of the results.
B1: Caulobacter ParB omega fusion; a variant is named by its letters at X, in order, B8GW30 (parent)
chain: MESVVVGEPGMSEGRRGLGRGLSALLGEVDAAPAQAPGEQLGGSREAPIEILQRNPDQPRRTFREEDLEDLSNSIREKGVLQPILVRPSPDTAGEYQIVAGERAWRAAQRAGLKTVPIMVRELDDLAVLEIGIIENVQRADLNVLEEALSYKVLMEKFERTQENIAQTIGKSXSHVANXMRLLXLPDEVQSYLVSGELTAXHARAIAAAADPVALAKQIIEGGLSVRETEALARKAPNLSAGKSKGGRPPRVKDTDTQALESDLSSVLGLDVSIDHRGSTGTLTITYATLEQLDDLCNRLTRGI

Variants of: B1
Assay: one-hybrid fitness for binding NBS DNA (the Noc-binding site; scaled: cognate 1, non-cognate 0); higher = stronger binding
Settings: with NBS DNA site
Outline: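 Fitness here means the log change in variant-to-wild-type read ratio between plasmids sequenced before and after selection. That scale was set so cognate equals 1 and non-cognate equals 0. The selection was a bacterial one-hybrid screen of Caulobacter ParB libraries, four specificity codons randomised, in E. coli USO carrying a HIS3 reporter with the site 19 bp from the promoter, grown 48 hours at 37°C on M9-minus-histidine with 0.1 mM IPTG and 5 mM 3-AT.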

Row | Variant | one-hybrid fitness for binding NBS DNA
1 | QVSK | ≤ 0.2
2 | QRTF | 0.294
3 | WIFS | ≤ 0.2
4 | EVCS | ≤ 0.2
5 | TLPY | ≤ 0.2
6 | HYKK | ≤ 0.2
7 | DIII | ≤ 0.2
8 | RLDP | ≤ 0.2
9 | QWPR | 0.202
10 | SIMP | ≤ 0.2
11 | PPFL | ≤ 0.2
12 | QETG | ≤ 0.2
13 | QTLM | ≤ 0.2
14 | THYT | ≤ 0.2
15 | KLPA | ≤ 0.2
16 | QKSE | ≤ 0.2
17 | SCKE | ≤ 0.2
18 | YTNG | ≤ 0.2
19 | SNRT | ≤ 0.2
20 | MPQI | ≤ 0.2
21 | SCNS | ≤ 0.2
22 | MMLC | ≤ 0.2
23 | ITQT | ≤ 0.2
24 | QLRP | ≤ 0.2

Row | Variant | one-hybrid fitness for binding NBS DNA
25 | WIQC | ≤ 0.2
26 | FKQR | ≤ 0.2
27 | QVGR | 0.426
28 | QAEK | ≤ 0.2
29 | LTMR | ≤ 0.2
30 | TIMG | ≤ 0.2
31 | NRTR | ≤ 0.2
32 | CGET | ≤ 0.2
33 | SSYY | ≤ 0.2
34 | LYYR | ≤ 0.2
35 | FFQR | ≤ 0.2
36 | HMGC | ≤ 0.2
37 | CSAE | ≤ 0.2
38 | DNSD | ≤ 0.2
39 | HPAI | ≤ 0.2
40 | RAMK | ≤ 0.2
41 | GPIF | ≤ 0.2
42 | NKDH | ≤ 0.2
43 | PLAN | ≤ 0.2
44 | ERHN | ≤ 0.2
45 | FDHS | ≤ 0.2
46 | SHTN | ≤ 0.2
47 | RPVP | ≤ 0.2
48 | RKYI | ≤ 0.2

Row | Variant | one-hybrid fitness for binding NBS DNA
49 | KYRQ | ≤ 0.2
50 | MEKS | ≤ 0.2
51 | RKAW | ≤ 0.2
52 | GGTG | ≤ 0.2
53 | ICRD | ≤ 0.2
54 | KQLG | ≤ 0.2
55 | FQLR | ≤ 0.2
56 | HAQC | ≤ 0.2
57 | VTRS | ≤ 0.2
58 | PWAI | ≤ 0.2
59 | MLMT | ≤ 0.2
60 | HHKT | ≤ 0.2
61 | RWII | ≤ 0.2
62 | NDKS | ≤ 0.2
63 | HGTT | ≤ 0.2
64 | RADN | ≤ 0.2
65 | WILE | ≤ 0.2
66 | ISLY | ≤ 0.2
67 | CRKI | ≤ 0.2
68 | TECF | ≤ 0.2
69 | CSGP | ≤ 0.2
70 | FNST | ≤ 0.2
71 | TLRC | ≤ 0.2
72 | RSHS | 0.47

Row | Variant | one-hybrid fitness for binding NBS DNA
73 | MTQG | ≤ 0.2
74 | LDFT | ≤ 0.2
75 | GYNM | ≤ 0.2
76 | NKDG | ≤ 0.2
77 | PSTA | ≤ 0.2
78 | EVSE | ≤ 0.2
79 | PVES | ≤ 0.2
80 | PNPR | ≤ 0.2
81 | NFLR | ≤ 0.2
82 | IIKS | ≤ 0.2
83 | NTEG | ≤ 0.2
84 | ITDR | ≤ 0.2
85 | WTML | ≤ 0.2
86 | GRKK | ≤ 0.2
87 | SLWA | ≤ 0.2
88 | KRIN | ≤ 0.2
89 | GDRK | ≤ 0.2
90 | QIGC | ≤ 0.2
91 | VAKG | ≤ 0.2
92 | CPIG | ≤ 0.2
93 | TNNV | ≤ 0.2
94 | GHRS | ≤ 0.2
95 | MKLG | ≤ 0.2
96 | FTEG | ≤ 0.2

Row | Variant | one-hybrid fitness for binding NBS DNA
97 | WRTC | ≤ 0.2
98 | YGGF | ≤ 0.2
99 | ENYR | ≤ 0.2
100 | RYNS | 0.497
101 | MSDG | ≤ 0.2
102 | CAAS | ≤ 0.2
103 | AALW | ≤ 0.2
104 | PSCT | ≤ 0.2
105 | LTSF | ≤ 0.2
106 | TCDE | ≤ 0.2
107 | DQRD | ≤ 0.2
108 | RCSV | ≤ 0.2
109 | FING | ≤ 0.2
110 | NRNA | ≤ 0.2
111 | VKNW | ≤ 0.2
112 | RHWQ | ≤ 0.2
113 | PFFL | ≤ 0.2
114 | PAGM | ≤ 0.2
115 | DAHS | ≤ 0.2
116 | NFCG | ≤ 0.2
117 | KPSC | ≤ 0.2
118 | RCIS | 0.281
119 | RWKI | ≤ 0.2
120 | CAGM | ≤ 0.2

Row | Variant | one-hybrid fitness for binding NBS DNA
121 | MIRS | ≤ 0.2
122 | PIKY | ≤ 0.2
123 | MPFI | ≤ 0.2
124 | YDST | ≤ 0.2
125 | REVP | ≤ 0.2
126 | TWAC | ≤ 0.2
127 | QLHE | ≤ 0.2
128 | DILM | ≤ 0.2
129 | KTFK | ≤ 0.2
130 | PIGH | ≤ 0.2
131 | EAGC | ≤ 0.2
132 | SARY | ≤ 0.2
133 | ECHT | ≤ 0.2
134 | TLVI | ≤ 0.2
135 | SFLL | ≤ 0.2
136 | APHP | ≤ 0.2
137 | GMVQ | ≤ 0.2
138 | PRSS | ≤ 0.2
139 | EYCS | ≤ 0.2
140 | GDHR | ≤ 0.2
141 | FDEV | ≤ 0.2
142 | IQLA | ≤ 0.2
143 | LLWR | ≤ 0.2
144 | RQTS | 0.436

Row | Variant | one-hybrid fitness for binding NBS DNA
145 | ISDV | ≤ 0.2
146 | AQYW | ≤ 0.2
147 | LIKM | ≤ 0.2
148 | SKSW | ≤ 0.2
149 | PEMS | ≤ 0.2
150 | VNIT | ≤ 0.2
151 | TLSH | ≤ 0.2
152 | FVEL | ≤ 0.2
153 | HKKI | ≤ 0.2
154 | AMDE | ≤ 0.2
155 | VRDV | ≤ 0.2
156 | CTRC | ≤ 0.2
157 | LDLT | ≤ 0.2
158 | TENY | ≤ 0.2
159 | SQPE | ≤ 0.2
160 | SNSI | ≤ 0.2
161 | QNPF | ≤ 0.2
162 | QESQ | ≤ 0.2
163 | SAPT | ≤ 0.2
164 | EDKI | ≤ 0.2
165 | KNQV | ≤ 0.2
166 | KKNM | ≤ 0.2
167 | QHSC | ≤ 0.2
168 | LHMH | ≤ 0.2

Row | Variant | one-hybrid fitness for binding NBS DNA
169 | WAWC | ≤ 0.2
170 | WPHC | ≤ 0.2
171 | QKLP | ≤ 0.2
172 | GRQV | ≤ 0.2
173 | YCLS | ≤ 0.2
174 | QESN | ≤ 0.2
175 | QVDM | ≤ 0.2
176 | GQTQ | ≤ 0.2
177 | CNSN | ≤ 0.2
178 | STNV | ≤ 0.2
179 | KKNS | 0.258
180 | HINI | ≤ 0.2
181 | LAEC | ≤ 0.2
182 | NDFT | ≤ 0.2
183 | PPGL | ≤ 0.2
184 | CRWS | ≤ 0.2
185 | LEYW | ≤ 0.2
186 | QDYF | ≤ 0.2
187 | NGNT | ≤ 0.2
188 | CRKM | ≤ 0.2
189 | THEM | ≤ 0.2
190 | VDGR | ≤ 0.2
191 | TAQV | ≤ 0.2
192 | HSID | ≤ 0.2

Row | Variant | one-hybrid fitness for binding NBS DNA
193 | KADS | ≤ 0.2
194 | ARFR | ≤ 0.2
195 | LKQV | ≤ 0.2
196 | HADD | ≤ 0.2
197 | AQQT | ≤ 0.2
198 | LLGV | ≤ 0.2
199 | QVFT | 0.214
200 | LNWG | ≤ 0.2
201 | NDPH | ≤ 0.2
202 | NSVK | ≤ 0.2
203 | LDVC | ≤ 0.2
204 | RQKT | 0.63
205 | GCAT | ≤ 0.2
206 | VTHK | ≤ 0.2
207 | QHTW | ≤ 0.2
208 | PREE | ≤ 0.2
209 | LHVC | ≤ 0.2
210 | RNNH | ≤ 0.2
211 | CLFG | ≤ 0.2
212 | DHDG | ≤ 0.2
213 | LTNR | ≤ 0.2
214 | AQIC | ≤ 0.2
215 | DRVT | ≤ 0.2
216 | TPLY | ≤ 0.2

Row | Variant | one-hybrid fitness for binding NBS DNA
217 | CVRN | ≤ 0.2
218 | HAKS | ≤ 0.2
219 | FMRL | ≤ 0.2
220 | EGTL | ≤ 0.2
221 | MYAT | ≤ 0.2
222 | STKY | ≤ 0.2
223 | QFNG | ≤ 0.2
224 | SVVP | ≤ 0.2
225 | LYVS | ≤ 0.2
226 | APWV | ≤ 0.2
227 | RAIP | ≤ 0.2
228 | CDKG | ≤ 0.2
229 | AGDI | ≤ 0.2
230 | NSDG | ≤ 0.2
231 | WNDT | ≤ 0.2
232 | PSWR | ≤ 0.2
233 | AMAT | ≤ 0.2
234 | SPDP | ≤ 0.2
235 | MEAS | ≤ 0.2
236 | QSNQ | ≤ 0.2
237 | KLKL | ≤ 0.2
238 | LGCG | ≤ 0.2
239 | MVAP | ≤ 0.2
240 | VHAR | ≤ 0.2

Row | Variant | one-hybrid fitness for binding NBS DNA
241 | KCNQ | ≤ 0.2
242 | GAWG | ≤ 0.2
243 | TGTA | ≤ 0.2
244 | YRYG | ≤ 0.2
245 | PELV | ≤ 0.2
246 | RKKQ | 0.242
247 | WHST | ≤ 0.2
248 | AFDG | ≤ 0.2
249 | HVLP | ≤ 0.2
250 | QKDM | ≤ 0.2
251 | DHMC | ≤ 0.2
252 | NMPS | ≤ 0.2
253 | IQTC | ≤ 0.2
254 | MRPF | ≤ 0.2
255 | TKIC | ≤ 0.2
256 | RPVS | ≤ 0.2
257 | WQGS | ≤ 0.2
258 | ITMR | ≤ 0.2
259 | QYVY | ≤ 0.2
260 | TKAM | ≤ 0.2
261 | RIMK | ≤ 0.2
262 | HAPF | ≤ 0.2
263 | MWRH | ≤ 0.2
264 | TQLG | ≤ 0.2

Row | Variant | one-hybrid fitness for binding NBS DNA
265 | DVRT | ≤ 0.2
266 | PRPI | ≤ 0.2
267 | TCYS | ≤ 0.2
268 | IAAE | ≤ 0.2
269 | PLCI | ≤ 0.2
270 | EMDS | ≤ 0.2
271 | QKMY | 0.224
272 | NLIR | ≤ 0.2
273 | AQAC | ≤ 0.2
274 | AADN | ≤ 0.2
275 | VHYF | ≤ 0.2
276 | QTQY | 0.285
277 | HRET | ≤ 0.2
278 | GYHS | ≤ 0.2
279 | LDSN | ≤ 0.2
280 | WSQG | ≤ 0.2
281 | MTFR | ≤ 0.2
282 | ARKK | ≤ 0.2
283 | METL | ≤ 0.2
284 | IVLS | ≤ 0.2
285 | QRFR | 0.865
286 | QPCS | ≤ 0.2
287 | HQYS | ≤ 0.2
288 | RCVC | ≤ 0.2

Row | Variant | one-hybrid fitness for binding NBS DNA
289 | WIAN | ≤ 0.2
290 | LTYW | ≤ 0.2
291 | MQAN | ≤ 0.2
292 | KYWR | ≤ 0.2
293 | RCPR | ≤ 0.2
294 | LEEK | ≤ 0.2
295 | SRNV | ≤ 0.2
296 | YVPE | ≤ 0.2
297 | KSHR | ≤ 0.2
298 | LTYC | ≤ 0.2
299 | QTVQ | 0.534
300 | CCTR | ≤ 0.2
301 | QCKC | 0.452
302 | EMTK | ≤ 0.2
303 | QKAY | ≤ 0.2
304 | TPYL | ≤ 0.2
305 | RYKW | ≤ 0.2
306 | NRHV | ≤ 0.2

From a collection of fitness landscapes (doi:10.1016/j.celrep.2020.107928)
